Results published in PMC6919601, “Identification of Plasmodium dipeptidyl aminopeptidase allosteric inhibitors by high throughput screening” (PLoS ONE, 2019).
“And” between values parts separate entries of the source, which are not always exact repeats. Equal values may be shown once. Among all 110,000 compounds or so, about 230 (0.21%) showed an effect of 50% or more. This is one part of the list.

biological target: DPAP1 (Plasmodium falciparum, UniProt Q8IIJ9); assay: primary screen, percent inhibition; read by cleavage of a fluorogenic dipeptide substrate; higher = more effect of the substance; parameters: species or system P. falciparum D10 trophozoite lysates; single well
Sequence (Q8IIJ9 whole entry, looked up): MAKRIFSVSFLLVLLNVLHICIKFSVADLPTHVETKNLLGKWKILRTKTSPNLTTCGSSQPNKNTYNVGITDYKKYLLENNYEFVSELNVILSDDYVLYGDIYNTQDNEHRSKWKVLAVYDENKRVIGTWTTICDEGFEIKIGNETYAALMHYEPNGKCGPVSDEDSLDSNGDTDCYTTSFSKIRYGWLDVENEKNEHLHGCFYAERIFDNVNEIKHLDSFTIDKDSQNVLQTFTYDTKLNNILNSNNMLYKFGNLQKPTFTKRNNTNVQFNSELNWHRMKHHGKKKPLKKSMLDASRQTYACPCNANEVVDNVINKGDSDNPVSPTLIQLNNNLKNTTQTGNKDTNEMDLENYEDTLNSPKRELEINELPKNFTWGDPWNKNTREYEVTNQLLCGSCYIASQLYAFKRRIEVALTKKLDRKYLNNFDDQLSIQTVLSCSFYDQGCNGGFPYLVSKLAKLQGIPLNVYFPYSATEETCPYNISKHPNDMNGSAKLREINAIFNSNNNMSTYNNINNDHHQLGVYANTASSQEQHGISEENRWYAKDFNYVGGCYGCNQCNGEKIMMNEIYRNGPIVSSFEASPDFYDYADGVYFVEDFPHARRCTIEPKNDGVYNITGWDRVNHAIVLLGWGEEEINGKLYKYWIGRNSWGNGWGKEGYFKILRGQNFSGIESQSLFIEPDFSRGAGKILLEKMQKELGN
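Note: 30 min substrate incubation versus DMSO and 10 µM JCP410 controls.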

SMILES | % Inhibition @ 10 uM
COc1ccc(CCN(C)C(C)Cc2ccc(F)cc2)cc1OC (stereo not drawn) | 4.68%
CN(CC(=O)NCc1ccccc1Cl)S(=O)(=O)c1ccc2[nH]c3c(c2c1)CCCC3 | 1.97%
Nc1ccc(-c2nc3cc(C(=O)O)ccc3[nH]2)cc1 | 2.73%
Fc1cccc(CN2CCN(Cc3ccc4c(c3)OCO4)CC2)c1 | -0.197%
COc1ccc(C(C#N)Nc2ccccc2)cc1 (stereo not drawn) | 2.87%
CCCN(CCC)S(=O)(=O)c1ccc(-c2cc(C(F)(F)F)no2)s1 | -3.82%
O=S(=O)(c1ccccc1)C1c2ccccc2Oc2ccc(F)cc21 (stereo not drawn) | -1.92%
Nc1nonc1-n1nnc(C(=O)O)c1-c1cccs1 | -1.82%
Cn1c(CNCc2ccccc2)nc2ccccc21 | 3.32%
CN(Cc1ccccc1)c1sc(S(C)(=O)=O)nc1S(=O)(=O)c1ccc(Cl)cc1 | 4.33%
CCOc1ccc(C2=CC(c3ccc(Cl)cc3)n3ncnc3N2)cc1 (stereo not drawn) | 1.73%
CCCN1CCC(NC2C3CC4CC(C3)CC2C4)CC1 (stereo not drawn) | 1.08%
CCC(C)OC(=O)C1=C(C)NC(=O)NC1c1ccc(OC)cc1 (stereo not drawn) | 10.4%
Cc1cc(C(=O)NC(C)C)on1 | 1.62%
CC(C)(C)NC(=O)COc1ccc(CNC2C3CC4CC(C3)CC2C4)cc1 (stereo not drawn) | 3.29%
Cc1cccc(CN2CCN(c3ccc([N+](=O)[O-])cc3)CC2)c1 | -3.71%
O=C(NCCOC(=O)c1ccc(F)cc1)c1ccc(F)cc1 | -2.26%
O=C1c2ccccc2-c2nc3ncccc3nc21 | -4.01%
CCOC(=O)c1[nH]c2ccccc2c1CN(CC)CC | -6.95%
CCOc1ccc(-c2cc(C(=O)N3CCN(C(=O)c4cc(OC)c(OC)c(OC)c4)CC3)[nH]n2)cc1 | 0.49%
COC(=O)c1ccc(C2CC(=O)NC3=C2C(=O)CC(c2ccc(F)cc2)C3)cc1 (stereo not drawn) | 4.78%
Nc1ncnc2c1ncn2CCN1CCCCC1 | -5.2%
COC(=O)c1ccc(-c2ccc(/C=C3/NC(=O)N(Cc4ccc(Br)cc4)C3=O)o2)c(C)c1 | 2.03%
O=C(NCc1ccccc1)C(=O)Nc1ccc(Cl)c(Cl)c1 | -5.9%
CC1=C(C(=O)N2CCCCC2)C(c2ccc(F)cc2)C2=C(O)CC(C)(C)CC2=N1 (stereo not drawn) | 4.99%
Cc1cc(C)c2c(-n3cccc3)c(C(=O)O)sc2n1 | 1.42%

SMILES | % Inhibition @ 10 uM
Cc1nc2sc(C(=O)Nc3ccc(Br)cc3)c(N)c2c(C)c1C | 0.35%
Cc1cccc(N2CCN(Cc3coc4ccccc4c3=O)CC2)c1C | -8.13%
COc1cc(C2c3c(-c4ccccc4O)n[nH]c3C(=O)N2CCc2ccccc2)ccc1O (stereo not drawn) | -3.12%
CN1CCCc2c1nc1ccccc1c2O | -2.42%
O=[N+]([O-])c1ccc(OCCCCCCN2CCCCC2)cc1 | -5.9%
C#CCOc1ccc(C2C(C#N)=C(N)Oc3c2ccc2ccccc32)cc1OC (stereo not drawn) | 1.63%
Clc1ccc(-c2nc3ccncc3[nH]2)cc1 | 4.26% and 5%
COc1cccc(CN2CCN(C(=O)c3cccc(F)c3)CC2)c1OC | -8.42%
CCCCCCNS(=O)(=O)c1ccc(NC(C)=O)cc1 | -2.64%
CCCC[C@H](NC(=O)C1(NC(=O)c2ccc(-c3csc(N4CCN(C)CC4)n3)cc2)CCCCC1)C(=O)c1nc2ccccc2o1 | 4.63%
CCN(CC)CCNC(=O)CCc1c(C)nc2nc(-c3ccc(Cl)cc3Cl)nn2c1C | -2.25%
Cc1ccc(C(c2ccc(C)o2)c2ccccc2Br)o1 | -7.34%
c1ccc(COC(CN2CCCC2)CN2CCCC2)cc1 | -0.711%
CCCCCNc1nc(C(C)C)c2c(c1C#N)CC(C)(C)OC2 | -1.33%
O=C1c2cccc3cccc(c23)C(=O)N1CC1CCN(S(=O)(=O)/C=C/c2ccccc2)CC1 | 7.54%
CC1CCCN(CCCNC(=O)C2CCC(CNS(=O)(=O)c3cccc4nsnc34)CC2)C1 (stereo not drawn) | 1.26%
Cc1nn(CC(=O)NCC(C)c2ccccc2)c(=O)c2c1sc1ccccc12 (stereo not drawn) | -3.12%
CC12CCC3C(CC=C4CC(O)CCC43CO)C1CCC2O (stereo not drawn) | -4.35%
COc1ccc(N2CCN(Cc3ccc(F)c(F)c3)CC2)cc1 | -3.72%
CCc1c(CN2CCN(C(=O)c3ccco3)CC2)csc1C | 1.5%
Cc1ccc(NC=C2C(=O)CC(c3ccccc3)CC2=O)cc1 (stereo not drawn) | -2.8%
O=S(=O)(Nc1ccc(Br)cc1)c1ccc(C2CCCCC2)cc1 | 6.33%
COc1ccc2c(c1)N(C)/C(=C1/S/C(=N/c3ccc(O)cc3)N(C)C1=O)S2 | -6.59%
CCN(C(=O)c1ccnn1C)c1ccccc1 | 3.86%
Brc1ccc(-c2cnnc(N3CCCC3)n2)cc1 | -4.98%
COc1cccc(/C=C2\SC(Nc3ccc(C)c(Cl)c3)=NC2=O)c1OCC(=O)O | 28.5%

SMILES | % Inhibition @ 10 uM
CCOC(=O)c1[nH]c(C)c(C(=O)N2CCN(c3ccccn3)CC2)c1C | 0.655%
COc1ccc(-c2nc(-c3ccc(O)cc3O)cs2)cc1OC | 16.2%
CCN(CC)c1ccc([N+](=O)[O-])c2cccnc12 | -3.94%
O=C(/C=C\c1ccccc1)Nc1ccc(N2CCOCC2)cc1 | -5.11%
O=C(O)/C(=C\c1ccco1)NC(=O)c1ccccc1Cl | 14.1%
Cc1nnc(SC2CCN(S(=O)(=O)c3ccc4c(c3)OCCO4)CC2)s1 | 0.635%
Cc1ccc(S(=O)(=O)c2cnc(S)nc2O)cc1 | -2.41%
CC(C)(C)c1ccc(SC2=CS(=O)(=O)c3ccccc32)cc1 | -1.63%
CC(C)(C)c1[nH]nc2c1C(c1cccnc1)C(C#N)=C(N)O2 (stereo not drawn) | -5.92%
CCOC(=O)C(=Cc1ccc(C)cc1)C(=O)OCC | 1.42%
CCN(CC)C(=O)C1CCCN(Cc2c(C)[nH]c3ccccc23)C1 (stereo not drawn) | 0.847%
O=S(=O)(c1ccc2cc(O)ccc2c1)N1CCOCC1 | 0.565%
CCc1nn(CC(=O)NCCOC)c(=O)c2cc3occc3n12 | -2%
COc1ccc(NC(=O)CCC(=O)c2ccc(Cl)cc2)cc1 | -1.84%
O=C(Nc1ccc2c(c1)OCO2)C(O)(c1ccccc1)c1ccccc1 | 4.03%
CSc1nc(N)c(C#N)c(-c2ccco2)c1C#N | -4.23%
CC1CN(S(=O)(=O)c2cccc(C(=O)O)c2)CC(C)O1 (stereo not drawn) | -2.39%
Cc1ccc(OCCCCCCN2CCCC2)cc1 | -0.636%
O=C(CSc1nc(-c2ccc(Cl)cc2)c[nH]1)NC1CCCCC1 | -0.999%
O=C(c1ccccc1-c1nc2ccccc2[nH]1)N1CCCCC1 | -4.21%
O=C(O)c1ccccc1-c1ccccc1C(=O)Nc1nc(-c2ccccc2)cs1 | -5.63%
O=C(O)Cc1c(O)nc2ccc(Br)cc2c1-c1ccccc1 | 3.12%
CCOC(=O)/C(C#N)=C/c1c(C)cc(C)cc1C | -5.36%
N#CCNC(=O)[C@H](Cc1ccccc1Cl)NC(=O)c1ccccc1 | -0.214%
CN(Cc1ccccc1)C(=O)c1cc2c(s1)-c1ccccc1SC2 | -4.04%
O=C(c1ccc(F)cc1)C(c1ccccc1)N1CCCC1 (stereo not drawn) | -3.74%

SMILES | % Inhibition @ 10 uM
COc1ccccc1-c1c(C)nn2c(SCC(=O)NCc3ccc4c(c3)OCO4)cc(C)nc12 | -1.7%
COc1ccc(N2CCN(Cc3c(C)n(C)n(-c4ccccc4)c3=O)CC2)cc1 | -1.21%
Cc1ccc(-n2nc(C)c3c(C(=O)NCCN4CCOCC4)cc(C)nc32)cc1 | 2.35%
NC(=O)c1nc(-c2cc(Br)ccc2O)nc2c1nc(O)n2-c1cccc(Cl)c1 | -0.72%
CN(C)c1ccc(/C=C2/SC(=O)N(CNc3ccccc3F)C2=O)cc1 | 5.73%
CCOC(=O)N1CCC(NC(=O)CN2C(=O)CSc3ncccc32)CC1 | -0.637%
Cc1c2cnn(CC(=O)N3CCC(N4CCCCC4)CC3)c(=O)c2c(C)n1Cc1ccccc1 | -0.447%
CCC(=O)NC(c1ccccc1OC)c1cc(Cl)c2cccnc2c1O (stereo not drawn) | 3.98%
N#CCNC(=O)C(CCSc1ccccc1Cl)NC(=O)c1ccccc1 (stereo not drawn) | -7.21%
CCOc1ccccc1/C=C1/NC(=S)NC1=O | 5.31%
COc1cc(C)c(CN2CCN(c3ncccn3)CC2)cc1C | 1.4%
O=C(OC1COC(c2ccc(Br)cc2)OC1)c1ccc(Br)cc1 (stereo not drawn) | 4.54%
CC(C)C(=O)Nc1nc(O)c2ncn(C3OC(CO)C(O)C3O)c2n1 (stereo not drawn) | 0.561%
COc1ccc(OC)c(C2C(C(=O)c3ccccc3)=C(O)C(=O)N2CC(C)O)c1 (stereo not drawn) | 2.09%
CCOC(=O)c1[nH]c(C)c(CN(CCc2ccc(OC)c(OC)c2)C(=O)CCCC(=O)O)c1C | 2.57%
O=C(Nc1nc2nccc(-c3ccccc3)n2n1)c1ccco1 | 2.95%
Cc1ccc2nc(N(CCCN(C)C)C(=O)c3ccc(S(=O)(=O)N(C)C)cc3)sc2c1 | 0.49%
COc1ccc(N2CCN(C(=O)c3cccc(OC)c3OC)CC2)cc1 | -0.545%
O=C(Nc1cccs1)NC1CCCc2ccccc21 (stereo not drawn) | -5.15%
CCc1ccc(OCC(=O)Nc2ccc(C(C)=O)cc2)cc1 | -10.5%
Cc1ccc(C(=O)OCCc2ccccc2)cc1S(=O)(=O)N1CCOCC1 | 10.4%
O=C(CN(CCc1ccccc1)S(=O)(=O)c1cc(Cl)ccc1Cl)N1CCOCC1 | -6.27%
COc1ccc(/C=C2\SC(=O)N(c3cccc(O)c3)C2=O)cc1OC | 14.3%
Cc1cc(O)n2nc(N)c(N)c2n1 | -0.396%
